Test [1] deals with Radioactively labelled FVIII (125I-FVIII) (human) (UniProt P00451). Briefly: cell-based or functional assay.
Test [2] concerns the target Fluorescent labelled FVIII (Oregon green-FVIII) (human) (UniProt P00451). Briefly: cell-based or functional assay.

For “Plasma derived full length VWF, VWF ([…]) (a stretch of the chain, sequence not shown) (other; 125I label)”, in test [1], the IC50 (nM), inhibition of 125I-FVIII binding to U87 MG cells is 1.2 nM; the IC50 (nM), inhibition of 125I-FVIII internalization in U87 MG cells came to 1.3 nM; the Maximal inhibition (%), 125I-FVIII binding to U87 MG cells was 34.3%; the Maximal inhibition (%), 125I-FVIII internalization in U87 MG cells was found to be 32.2%.

Turning to “Plasma derived full length VWF, VWF ([…]) (a stretch of the chain, sequence not shown) (other; Oregon Green fluorescent label)”, in test [2], the IC50 (nM), inhibition of uptake of fluorescently labelled FVIII in macrophages was 15.6 nM and the Maximal inhibition (%), uptake of fluorescently labelled FVIII in macrophages worked out at 32.6%.

The record behind these values is patent US20160207977A1.
